Measured values from paper PMC4336329 (PLoS ONE, 2015).
Out of some 310,000 compounds screened, about 14,000 (4.5%) showed an effect of 50% or more. The effect is printed as a negative number. The list shows a part of the results.

target: human ether-à-go-go-related gene (hERG) potassium channel (human, UniProt Q12809); experiment: primary screen, population patch clamp on CHO cells stably expressing hERG
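Also: peak tail current of the secondary pulse compared with the same well before compound.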

human ether-à-go-go-related gene (hERG) potassium channel, sequence (Q12809 whole entry, looked up): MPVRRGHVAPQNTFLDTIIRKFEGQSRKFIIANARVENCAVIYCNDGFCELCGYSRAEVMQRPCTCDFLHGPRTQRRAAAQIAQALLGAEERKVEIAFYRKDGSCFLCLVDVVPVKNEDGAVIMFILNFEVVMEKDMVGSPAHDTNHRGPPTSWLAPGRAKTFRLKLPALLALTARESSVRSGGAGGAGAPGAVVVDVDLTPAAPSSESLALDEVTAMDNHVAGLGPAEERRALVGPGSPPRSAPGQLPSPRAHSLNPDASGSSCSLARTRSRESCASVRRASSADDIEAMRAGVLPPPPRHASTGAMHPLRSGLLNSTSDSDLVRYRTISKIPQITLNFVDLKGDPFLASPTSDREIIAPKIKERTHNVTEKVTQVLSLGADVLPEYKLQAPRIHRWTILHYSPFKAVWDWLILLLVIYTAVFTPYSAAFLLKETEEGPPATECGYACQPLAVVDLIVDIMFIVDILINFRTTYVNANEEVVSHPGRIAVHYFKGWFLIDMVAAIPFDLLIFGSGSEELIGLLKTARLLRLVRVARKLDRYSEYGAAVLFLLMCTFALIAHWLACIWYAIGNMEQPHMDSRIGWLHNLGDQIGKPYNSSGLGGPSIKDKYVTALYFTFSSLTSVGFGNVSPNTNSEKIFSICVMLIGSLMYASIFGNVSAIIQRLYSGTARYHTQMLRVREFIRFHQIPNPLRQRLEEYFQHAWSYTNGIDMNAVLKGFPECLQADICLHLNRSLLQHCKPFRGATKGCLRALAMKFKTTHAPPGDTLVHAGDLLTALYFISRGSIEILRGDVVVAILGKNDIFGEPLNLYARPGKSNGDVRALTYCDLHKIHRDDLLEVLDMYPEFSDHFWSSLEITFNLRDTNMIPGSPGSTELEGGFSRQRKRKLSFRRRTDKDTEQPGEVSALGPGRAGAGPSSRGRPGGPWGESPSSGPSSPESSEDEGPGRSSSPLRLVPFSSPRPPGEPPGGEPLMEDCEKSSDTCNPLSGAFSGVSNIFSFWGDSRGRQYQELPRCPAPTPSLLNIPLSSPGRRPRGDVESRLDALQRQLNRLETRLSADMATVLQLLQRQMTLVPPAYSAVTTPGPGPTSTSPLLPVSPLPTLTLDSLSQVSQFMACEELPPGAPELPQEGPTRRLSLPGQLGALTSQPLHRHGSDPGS

Structure (SMILES) | hERG current change (%, negative = inhibition) at 10uM
CCOC(=O)C1=C(CNCCc2ccc(Cl)cc2)NC(=O)NC1c1cccc([N+](=O)[O-])c1 (stereo not drawn) | -29%
O=C(CSc1nc2[nH]c(=O)cc(O)c2s1)Nc1nccs1 | 2.57%
CC1CCCC(C)N1C(=O)CN1C(=O)C(C)(C)Oc2ccc(C(=O)NC3CCCCC3)cc21 (stereo not drawn) | -0.937%
CNC(=O)Nc1ccc(S(N)(=O)=O)cc1 | 8.48%
COCc1c(C(=O)N/N=C/c2cccc3ccccc23)nnn1-c1nonc1N | 9.09%
Cn1c(SCCS(=O)(=O)c2ccc(Cl)cc2)nnc1-c1ccccc1 | -19.3%
COCCN(C(=O)COC(=O)c1c(-c2ccccc2)noc1C)c1c(N)n(Cc2ccccc2)c(=O)[nH]c1=O | -37.5%
Cc1ccc(S(=O)(=O)N(C)c2ccc(C(=O)Nc3cccc(C)n3)cc2)cc1 | -8.7%
CCC1(C)Cc2nc3[nH]c(=S)n(-c4ccccc4C)c(=O)c3cc2CO1 (stereo not drawn) | 4.44%
CCC1CCCCN1C(=S)Nc1ccc(S(=O)(=O)Nc2ncccn2)cc1 (stereo not drawn) | 14.4%
O=C(OCC(=O)c1ccc[nH]1)c1ccc(S(=O)(=O)N2CCCCCC2)cc1 | 1.31%
O=S(=O)(c1ccc(SCCOc2ccc(Br)cc2)nc1)N1CCCC1 | 1.58%
Cc1noc(/C=C/N(C)C)c1S(=O)(=O)N1CCCC(C(=O)N2CCc3ccccc32)C1 (stereo not drawn) | 13%
O=C(CN1CCN(C(=O)N2CCOCC2)CC1)Nc1cc(Cl)ccc1Cl | -59.9%
COCc1cc(/C=N\NC(=O)Cc2ccc(Cl)cc2)ccc1OC | -3.36%
COc1ccc(C(CCNCc2ccc(N(C)C)cc2)c2ccccc2)cc1 (stereo not drawn) | -72.2%
CCN(CC(=O)Nc1c(F)cccc1F)C(=O)c1ccc(=O)n(Cc2ccccc2)n1 | 17%
O=C(Cn1cnc2ccccc21)N/N=C/c1ccccc1[N+](=O)[O-] | -5.59%
CCOC(=O)N1CCN(C(=O)CCn2c(=S)[nH]c3ccccc3c2=O)CC1 | 10.4%
CC(=N/O)/C(=N\O)c1ccc(C)o1 | 3.23%
Cc1cc(C(=O)N2CCN(c3ccccc3)CC2)no1 | -0.965%
Cc1cc2n(n1)C(c1sccc1C)Nc1c(C)cccc1-2 (stereo not drawn) | 2.2%
Cc1ccc(O)c(C=Nc2ccc3[nH]ncc3c2)c1 | -4.45%
O=C(NCCN1CCN(Cc2ccccc2)CC1)c1ccc(CS(=O)(=O)c2ccc(Br)cc2)o1 | -79.8%
